The RNAGym collection of RNA variant scans (doi:10.1093/nar/gkz1192)
Read counts are not given, so values of variants with three or more changes are uncertain.

B1: CPEB3 Ribozyme (parent)
chain: UAACAGGGGGCCACAGCAGAAGCGUUCACGUCGCAGCCCCUGUCAGAUUCUGGUGAAUCUGCGAAUUCUGCUGUAUAUCUC

Variants of: B1
Assay: self-cleavage, relative activity (ratio to wild type); higher = more cleavage; in vitro, sequencing
Outline: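 For each CPEB3 ribozyme variant, relative activity is its cleaved/total read fraction divided by the unmutated ribozyme's. Barcoded error-prone PCR libraries were transcribed by T7 RNA polymerase (5 hours, 37°C) and held in DNase I for 15 min before an EDTA stop, with cleavage occurring throughout. Template-switching reverse transcription and Illumina sequencing were used to read the RNAs. A 5-read minimum applied, and results are the mean of three batches.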

Row | Variant | self-cleavage
1 | UAGCAGGGGGCCACAGCAGAAGCGUUCACGUCGCAGCCCCUGUCAGAUUCUGGUGAGUCUGCGAAUACUGCUGUAUAUCUC [A3G A57G U67A] | 0.49
2 | UAGCAGGGGGCCACAGCAGAAGCGUUCUCGUCGCAGCCCCCGUCAGACUCUGGUGAAUCUGCGAAUUCUGCUGUAUAACAC [A3G A28U U41C U48C U78A U80A] | 0.28
3 | UAGCAGGGGGCCACAGCAGAAGCGUUCACGUCGCAGCCCCUGUCAGAUUCUGGUGAAUCUGCGGAUUCCGCUGUAUACCUC [A3G A64G U69C U78C] | 0.6
4 | UAGCAGGGGGCCACAGCAGAAGCGUUCACGUCGCAGCCCCUGUCUGAUUCUGGUGAAUCUGCGAAUUCAGCUGUAUAUCUC [A3G A45U U69A] | 0.15
5 | UAGCAGGGGGCCACAGCAGAAGCGUUCACGUCGCAGCCCCUGUCGGAUUCUGGUGAAUCUGCGAAUUCUGCUGAAUAUCUC [A3G A45G U74A] | 1.24
6 | UAGCAGGGGGCCACAGCAGAGGCGUUCACGUCGCAGCCCCUGACAGAUUCUGGUGAAUCUGUGAAUUCUGCUGUACAUCUC [A3G A21G U43A C62U U76C] | 0.13
7 | UAGCAGGGGGCCACAGCAGAAGCGUUCACGUCGCAGCCCCUGUCAGAUUCUGGUGGAUCUGCGAAUUCCGCUGUAUAUCUC [A3G A56G U69C] | 0.41
8 | UAGCAGGGGGCCACAGCAGAGGCGUUCACGUCGCAGCCCCUGUCAGAUUCUGGUGAAUCUGCGAAUUCCGCUGUAUAUCUC [A3G A21G U69C] | 0.15
9 | UAGAGGGGGGCCACAGUAGAUGCGUCCACGUCGCAGCCCCUGUUAGAUUCUGGUGAAUCUGCGAAUUCUGCUGUAUAUCUC [A3G C4A A5G C17U A21U U26C C44U] | 0.34
10 | UAGGAGGGGGCCACAGCAGAAGCGUUCACGUCGCAGCCCCUGUAAGAUUCUGGUGAAUCUGCGAAUUCUGCUGUAUAUCUC [A3G C4G C44A] | 0.71
11 | UAGCAGGGGGCCACAGCAGAAGCGUUCACGUCGCGGCCCCAGUCAGAUACUGGAGAACCUGCGAAUUCUGCUGUAUAUCUC [A3G A35G U41A U49A U54A U58C] | 0.11
12 | UAGCAGGGGGCCACAGCAGAAGCGUUCACGUCGCAGCCCCUGUCGGAUUCAGGUGAAUCUGCGAAUUCUGCUGUAUCUCUC [A3G A45G U51A A77C] | 0.67
13 | UAGCAGGGGGCCACAGCAGAAGCGUUCACGUCGCGGCCCCUUUCAGAAUCUGGUGAAUCUGCGAAUUCUGCUGUAUAUCUC [A3G A35G G42U U48A] | 0.49
14 | UAGCAGGGGGCCACAGCAGAAGCGUUCACGUCGCAGCCCCUGUCUGAUUCUGGUGAAUCUGCGAAUUCUGCUGCAUAUCUC [A3G A45U U74C] | 0.78
15 | UAGCAGGGGGCCACAGCAGAAGCGUUCACGUCGCGACCCCUGUCAGAUUCUGGUGAAUCUGCGAAUUCUGCUGUAUAUCUC [A3G A35G G36A] | 1.06
16 | UAGCAGGGGGCCACAGCAGAAGCGUUCACGUCGCUGCCCCUGUCAGAUUCUGGUGAAUCUGCGAAUUCUGCUGUACAUCUC [A3G A35U U76C] | 0.72
17 | UAGCAGGGGGGCACAGCGGAAGCGUUCACGUCGCAGCCCCUGUCAGAUUCUGGUGAAUCUGCGAAUCCUGCUGUAUAUCUC [A3G C11G A18G U67C] | 0.12

Row | Variant | self-cleavage
18 | UAGCAGGGGGCCACAGCAGAUGCGUUCACGUCGCAGCCCCUGUCAGAUUCUGGCGAAUCUGCGAAUUCUGCCGUAUAUCUC [A3G A21U U54C U72C] | 0.52
19 | UAGCAGGGGGCCACAGCAGAAGCGUUCGCGUCGCAGCCCCUGUCAGAUUCUGGUGAAUCUGCGAAUUCUGCUGUAUAUCAC [A3G A28G U80A] | 1.02
20 | UAGCAGGGGGCCACAGCAGAGGCGUUCACGUCGCAGCCCCCGUCAGAUUCUGGUGAAUCUGCGGAUUCUGCUGUAUAUCCC [A3G A21G U41C A64G U80C] | 0.33
21 | UAGGAGGGGGCCACAGCGGAAGCGUUCACGUCGCAGCCCUUGUCAGAUUCUGGUGAAUCUGCGAAUUCCGCUGUAUAUCUC [A3G C4G A18G C40U U69C] | 0.77
22 | UAGCAGGGGGCCACAGCAGAAGCGUUCACGUCGCUACCCCUGUCAGAUUCUGGCGAUUCUGCGAAUUCUGCUGUAUUUCUC [A3G A35U G36A U54C A57U A77U] | 0.25
23 | UAGCAGGGGGCCACAGCAGAAGCGUUCACGUCGCAGCCCCUGUCGGAUUCUGGUGAGUCUGCGAAUUCUGCUGUAUACCUC [A3G A45G A57G U78C] | 0.58
24 | UAGCAGGGGGCCACAGCAGAAGCGUUCGCGUCACAGCCCCUGUCAGAUUCUGGUGAAUCCGCGAAUUCUGCUGUAUAUCUC [A3G A28G G33A U60C] | 0.36
25 | UAGCAGGGGGCCACAGCAGAAGCGUUCACGUCGCAGCCCCUGUCGGAUUCUGGUGAAUCUGCGAACUCUGCCGUAUGUCUC [A3G A45G U66C U72C A77G] | 0.26
26 | UAGCAGGGGGCCACAGCAGAAGCGUUCUCGCCGCGGCCCCUGUCAGAUUCUGGUGAAUCUGUGAAUUCUUCUGUAUAUCUC [A3G A28U U31C A35G C62U G70U] | 0.13
27 | UAGCAGGGGGCCACAGCAGAAGCGUUCGCGUCGCAGCCCCUGUCAGACUCUGGUGAAUCUGCGAACUCUGCUGUAUAUCUC [A3G A28G U48C U66C] | 0.28
28 | UAGCAGGGGGUCACAGCAGGAGCGUUCACGUCGCAGCCCCUGCCAGAUUCUGGAGAAUCUGCGAAUUCUGCUGUAUAUCUC [A3G C11U A20G U43C U54A] | 0.09
29 | UAGCAGGGGGCCACAGCAGAAGCGUUCACGUCGCAGCCCCUGUCGGAUUCUGGUGAGUCAGCGGACUCUGCUGUAUAUCUC [A3G A45G A57G U60A A64G U66C] | 0.17
30 | UAGCAGGGGGCCACAGCAGAAGCGUUCACGUCGCUGCCCCUGUCAGAUUCUGGUGAAUCUGCGAAUUCUGCCGUAUAUCUC [A3G A35U U72C] | 0.51
31 | UAGCAGGGGGACACAGCAGGAGCGUUCACGUCGCAGCCCCUGUCAGAUUCAGGUGAGUCUGCGAAUUCUGCUGUAUACCUC [A3G C11A A20G U51A A57G U78C] | 0.03
32 | UAGCAGGGGGCCACAGCAGAGGCGUUCACGUCGCAGCCCCUGUCAGAUUCUGGUGAAUCUGCGAAUUCUGCUGCAUAUCUC [A3G A21G U74C] | 1.05
33 | UAGCAGGGGGCCACAGCAGAAGCGUUCACGUCGCGGCCCUUGUCAGAUUCUGGUGAAUCUGCGAGUUCUGCUGUAUAUCUC [A3G A35G C40U A65G] | 0.79
34 | UAGUAGGGGGCCACAGCAGAAGCGUUCACGUUGCAGCCCCUGUCAGAUUCUGGUGAAUUAGCGAAUUCUGCUGUAUAUCUC [A3G C4U C32U C59U U60A] | 0.07
